Certain results were filed several times, with different values. They are shown here; other results are not. An entry can have further records. Values that stand side by side are repeated measurements (runs, samples, wells, individuals or studies).
Key:
Format in all cases: toxicity, cell-based
HEK-293T = assay: Multiplex assay against HEK293T; conditions: human;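 for Population Tubulin-Different-Phenotype (%): share of the cells with healthy nuclei that show this phenotype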
In short: (§1)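 Hoechst33342, BioTracker Green Microtubule Cytoskeleton Dye, MitoTracker Red and Annexin V Alexa Fluor 680 were added to live cells at seeding, and imaging on a CQ1 microscope at 37°C and 5% CO2 followed compound addition. Gating by CellPathfinder machine learning separated cells into Hoechst high-intensity objects or normal cells, then normal cells into healthy, pyknosed or fragmented nuclei, then pyknosed cells into mitotic or apoptotic. Per cents of healthy-nucleus cells are reported for the tubulin, mitochondrial-mass and membrane-permeability phenotypes.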

Fibroblast = assay: Multiplex assay against human fibroblast; in short: as §1
U2OS = assay: Multiplex assay against U2OS; conditions: human; in short: as §1
[1] = 12 h, 1 µM, compound concentration 1 uM, replicate 1
[2] = 12 h, 1 µM, compound concentration 1 uM, replicate 2
[3] = 24 h, 1 µM, compound concentration 1 uM, replicate 1
[4] = 24 h, 1 µM, compound concentration 1 uM, replicate 2
[5] = 12 h, 10 µM, compound concentration 10 uM, replicate 1
[6] = 12 h, 10 µM, compound concentration 10 uM, replicate 2
[7] = 24 h, 10 µM, compound concentration 10 uM, replicate 1
[8] = 24 h, 10 µM, compound concentration 10 uM, replicate 2

FC(F)c1nc2ccccc2n1-c1nc(N2CCOCC2)nc(N2CCOCC2)n1 [ZSTK-474]
Population Tubulin-Different-Phenotype (%) (HEK-293T; [1]): 6% and 19% | Population Hoechst High Intensity Objects (%) (HEK-293T; [2]): 9% and 2% | Population Mitochondria Different-Phenotype (%) (HEK-293T; [2]): 32% and 7% | Population Tubulin-Different-Phenotype (%) (HEK-293T; [2]): 51% and 7% | Population Mitochondria Different-Phenotype (%) (HEK-293T; [3]): 19% and 5% | Population Tubulin-Different-Phenotype (%) (HEK-293T; [3]): 58% and 9% | Population Mitochondria Different-Phenotype (%) (HEK-293T; [4]): 22% and 2% | Population Pyknosed Nuclei (%) (HEK-293T; [4]): 9% and 1% | Population Tubulin-Different-Phenotype (%) (HEK-293T; [4]): 87% and 7% | Population Membrane Permeable-Phenotype (%) (Fibroblast; [1]): 12% and 2% | Population Tubulin-Different-Phenotype (%) (Fibroblast; [1]): 15% and 1% | Population Apoptotic (%) (Fibroblast; [2]): 0% and 33% | Population Pyknosed Nuclei (%) (Fibroblast; [2]): 1% and 7% | Population Tubulin-Different-Phenotype (%) (Fibroblast; [2]): 7% and 60% | Population Mitochondria Different-Phenotype (%) (Fibroblast; [3]): 5% and 1% | Population Tubulin-Different-Phenotype (%) (Fibroblast; [4]): 8% and 30% | Population Apoptotic (%) (U2OS; [1]): 43% and 11% | Population Mitochondria Different-Phenotype (%) (U2OS; [1]): 4% and 15% | Population Apoptotic (%) (U2OS; [2]): 16% and 71% | Population Apoptotic (%) (U2OS; [3]): 75% and 14% | Population Membrane Permeable-Phenotype (%) (U2OS; [3]): 16% and 5% | Population Mitotic Cells (%) (U2OS; [3]): 25% and 85%

CS(=O)(=O)N1CCN(Cc2cc3nc(-c4cccc5[nH]ncc45)nc(N4CCOCC4)c3s2)CC1 [PICTILISIB]
Population Hoechst High Intensity Objects (%) (Fibroblast; [1]): 16% and 49% | Population Tubulin-Different-Phenotype (%) (Fibroblast; [1]): 14% and 80% | Population Mitochondria Different-Phenotype (%) (Fibroblast; [2]): 0% and 45% | Population Mitotic Cells (%) (Fibroblast; [2]): 20% and 64% | Population Pyknosed Nuclei (%) (Fibroblast; [2]): 8% and 28% | Population Tubulin-Different-Phenotype (%) (Fibroblast; [2]): 9% and 45% | Population Mitochondria Different-Phenotype (%) (Fibroblast; [3]): 5% and 65% | Population Pyknosed Nuclei (%) (Fibroblast; [3]): 12% and 38% | Population Tubulin-Different-Phenotype (%) (Fibroblast; [3]): 15% and 76% | Population Membrane Permeable-Phenotype (%) (Fibroblast; [4]): 36% and 0% | Population Mitochondria Different-Phenotype (%) (Fibroblast; [4]): 0% and 100% | Population Pyknosed Nuclei (%) (Fibroblast; [4]): 11% and 34% | Population Mitochondria Different-Phenotype (%) (U2OS; [1]): 94% and 11% | Population Pyknosed Nuclei (%) (U2OS; [1]): 42% and 10% | Population Mitochondria Different-Phenotype (%) (U2OS; [2]): 90% and 20% | Population Pyknosed Nuclei (%) (U2OS; [2]): 51% and 8% | Population Tubulin-Different-Phenotype (%) (U2OS; [2]): 95% and 26% | Population Healthy Nuclei (%) (U2OS; [3]): 16% and 80% | Population Hoechst High Intensity Objects (%) (U2OS; [3]): 22% and 2% | Population Mitochondria Different-Phenotype (%) (U2OS; [3]): 89% and 12% | Population Mitotic Cells (%) (U2OS; [3]): 8% and 26% | Population Pyknosed Nuclei (%) (U2OS; [3]): 66% and 8% | Population Tubulin-Different-Phenotype (%) (U2OS; [3]): 89% and 22% | Population Membrane Permeable-Phenotype (%) (U2OS; [4]): 95% and 12% | Population Mitochondria Different-Phenotype (%) (U2OS; [4]): 100% and 17% | Population Pyknosed Nuclei (%) (U2OS; [4]): 50% and 10% | Population Tubulin-Different-Phenotype (%) (U2OS; [4]): 100% and 13%

CCN1CCN(Cc2ccc(NC(=O)c3ccc(C)c(Oc4ccnc5[nH]ccc45)c3)cc2C(F)(F)F)CC1.Cl.Cl.Cl.O
Population Mitochondria Different-Phenotype (%) (HEK-293T; [5]): 14% and 59% | Population Tubulin-Different-Phenotype (%) (HEK-293T; [5]): 9% and 75% | Population Apoptotic (%) (HEK-293T; [6]): 52% and 12% | Population Mitochondria Different-Phenotype (%) (HEK-293T; [6]): 67% and 20% | Population Pyknosed Nuclei (%) (HEK-293T; [6]): 30% and 6% | Population Tubulin-Different-Phenotype (%) (HEK-293T; [6]): 97% and 21% | Population Apoptotic (%) (HEK-293T; [7]): 78% and 23% | Population Mitochondria Different-Phenotype (%) (HEK-293T; [7]): 75% and 10% | Population Mitotic Cells (%) (HEK-293T; [7]): 21% and 76% | Population Pyknosed Nuclei (%) (HEK-293T; [7]): 53% and 17% | Population Tubulin-Different-Phenotype (%) (HEK-293T; [7]): 74% and 24% | Population Apoptotic (%) (HEK-293T; [8]): 67% and 8% | Population Fragmented Nuclei (%) (HEK-293T; [8]): 1% and 13% | Population Mitochondria Different-Phenotype (%) (HEK-293T; [8]): 80% and 4% | Population Pyknosed Nuclei (%) (HEK-293T; [8]): 26% and 2% | Population Tubulin-Different-Phenotype (%) (HEK-293T; [8]): 98% and 19% | Population Apoptotic (%) (Fibroblast; [6]): 0% and 55% | Population Pyknosed Nuclei (%) (Fibroblast; [6]): 2% and 19% | Population Membrane Permeable-Phenotype (%) (Fibroblast; [8]): 35% and 0% | Population Mitochondria Different-Phenotype (%) (Fibroblast; [8]): 11% and 37% | Population Pyknosed Nuclei (%) (Fibroblast; [8]): 4% and 30% | Population Fragmented Nuclei (%) (U2OS; [5]): 29% and 3% | Population Mitochondria Different-Phenotype (%) (U2OS; [5]): 84% and 8% | Population Pyknosed Nuclei (%) (U2OS; [5]): 35% and 8% | Population Tubulin-Different-Phenotype (%) (U2OS; [5]): 98% and 12% | Population Apoptotic (%) (U2OS; [6]): 69% and 12% | Population Mitochondria Different-Phenotype (%) (U2OS; [6]): 100% and 16% | Population Tubulin-Different-Phenotype (%) (U2OS; [6]): 100% and 9% | Population Fragmented Nuclei (%) (U2OS; [7]): 18% and 2% | Population Healthy Nuclei (%) (U2OS; [7]): 21% and 86% | Population Hoechst High Intensity Objects (%) (U2OS; [7]): 20% and 1% | Population Membrane Permeable-Phenotype (%) (U2OS; [7]): 68% and 11% | Population Mitochondria Different-Phenotype (%) (U2OS; [7]): 93% and 7% | Population Mitotic Cells (%) (U2OS; [7]): 10% and 62% | Population Healthy Nuclei (%) (U2OS; [8]): 23% and 77% | Population Membrane Permeable-Phenotype (%) (U2OS; [8]): 70% and 15% | Population Mitochondria Different-Phenotype (%) (U2OS; [8]): 100% and 15% | Population Mitotic Cells (%) (U2OS; [8]): 9% and 41% | Population Pyknosed Nuclei (%) (U2OS; [8]): 60% and 11% | Population Tubulin-Different-Phenotype (%) (U2OS; [8]): 100% and 7%

Source: ChEMBL document CHEMBL4689842, “EUbOPEN Chemogenomics Library wave 1” (2021)
